Laboratory results as given in PubChem BioAssay AID624296 (National Center for Advancing Translational Sciences (NCATS), 2012).
Several values for one entry are separate records, joined by “and”; a condition that tells them apart may be missing. Identical values can stand only once. The whole screen tested about 350,000 compounds, of which about 9,900 (2.8%) were called active. Inconclusive means that the source gave no clear call. Such entries were picked first, then a sample of the others. Calls come from the whole dose curve; as a rule, active = well fitted activation curve with a large enough effect; inconclusive = small, poorly fitted or top-dose-only effect; inactive = no such curve, though single readings can be large or run the other way. Potencies beside an inconclusive call are fits to weak or partial responses and may not hold up.

Assay: A quantitative high throughput screen for small molecules that induce DNA re-replication in MCF 10a normal breast cells. Note: nearly all actives have a fitted effect of over 50% in size.
Settings: MCF 10A DNA re-replication, Hoechst nuclear intensity, 48 h; series mostly up to 46.1 µM
Potency is the fitted concentration of half-maximal effect; tags give direction and shape of the fitted curve.

SMILES | Potency
N#Cc1c(-c2ccco2)cc(-c2ccccn2)nc1N | inconclusive: 29.1 µM [activator, single point]
CCN(CC)C(=O)c1ccc(S(=O)(=O)N2CCC(c3nc4ccccc4s3)CC2)cc1 | inconclusive: 20.6 µM [activator, single point]
O=C(COc1ccc2ccccc2c1)Nc1ccc(Cc2ccncc2)cc1 | inactive
Cc1cc2c(ccc3c2no[n+]3[O-])nn1 | inconclusive: 23.1 µM [activator, single point]
COc1ccc(-c2cc(C(=O)N3CCN(c4ccccc4)CC3)no2)cc1 | inconclusive: 18.4 µM [activator, partial curve, poor fit]
O=C(Nc1ccc(S(=O)(=O)NCC2CCCO2)cc1)C1CC(=O)N(c2ccccc2)C1 (stereo not given) | inconclusive: 10.3 µM [activator, partial curve, poor fit]
O=C(Cc1cccs1)N/N=C/C(Br)=C/c1ccccc1 | active: 18.4 µM
COc1cc(NC(=S)Nc2ccccn2)cc(OC)c1OC | inconclusive: 25.9 µM [activator, partial curve, poor fit]
CCc1nc(C)cn1S(=O)(=O)c1ccc2c(c1)OCCO2 | inactive
COc1ccc(CCNCC(=O)Nc2ccc(OC(F)(F)F)cc2)cc1OC | active: 23.1 µM
CN(C)CCCN(C(=O)CCc1ccccc1)c1nc2ccc(Cl)cc2s1 | inconclusive: 23.1 µM [activator, single point]
COc1ccc(CN2C(=NC(=O)c3ccccc3)SC3CS(=O)(=O)CC32)cc1OC (stereo not given) | inactive
CC1=CC(c2ccccc2)n2ncnc2N1 (stereo not given) | inactive
CC(=O)N1CCCN(Cc2cn(-c3ccc(C)cc3)nc2-c2ccc(F)cc2)CC1 | inconclusive: 29.1 µM [activator, partial curve, poor fit]
O=C(Nc1cccc(-c2cn3ccccc3n2)c1)c1cccc(Cl)c1 | inconclusive: 29.1 µM [activator, single point]
CCOC(=O)N1CCN(c2ccc(S(=O)(=O)N(Cc3ccccc3)Cc3ccccc3)cn2)CC1 | inactive
N#CCC(=O)Nc1ncc(Cc2ccccc2Cl)s1 | active: 14.6 µM
CCOc1ccc(NC(=O)C2CCCN(C(=O)NCc3ccccc3)C2)cc1 (stereo not given) | inactive
CC(=O)O[C@]1(C(C)=O)CC[C@H]2[C@@H]3C[C@H](C)C4=CC(=O)CC[C@]4(C)[C@H]3CC[C@@]21C | inconclusive: 291 nM [activator, full curve, poor fit] and inconclusive: 25.9 µM [activator, single point]
Cc1ccccc1COc1ccc2oc(C)c(C(=O)O)c2c1 | inconclusive: 1.64 µM [activator, partial curve, poor fit]
CC(N=C1NS(=O)(=O)c2ccccc21)C(=O)N1CCc2ccccc2C1 (stereo not given) | inactive
N#CC1=C(N)c2ccccc2CC12CCCCC2 | inactive
O=C(Nc1cccc(NC(=O)c2ccco2)c1)c1cccc(Br)c1 | inactive
CCOCc1c(C(=O)Nc2ccccc2N2CCN(C)CC2)oc2ccccc12 | inactive

SMILES | Potency
CS(=O)CSc1nc2c(cc1C#N)CCCC2 (stereo not given) | inconclusive: 25.9 µM [activator, single point]
C[C@H](CO)N1C[C@H](C)[C@@H](CN(C)S(=O)(=O)c2cn(C)cn2)Oc2c(NS(=O)(=O)c3cccs3)cccc2C1=O | inactive
O=C(O)C1(Nc2ccc(Cl)cc2)CCCC1 | inactive
CC1Cc2ccccc2N1C(=O)COC(=O)c1ccc(Cl)c(S(=O)(=O)N2CCOCC2)c1 (stereo not given) | inactive
Nc1c(C(=O)NCC2CCCO2)c2nc3ccccc3nc2n1-c1ccccc1 (stereo not given) | inconclusive: 20.6 µM [activator, single point]
O=C(c1ccncc1)N1CCN(S(=O)(=O)c2cccc(Cl)c2)CC1 | inactive
N#Cc1c(N)n(CCOC(=O)c2ccc(Cl)cc2)c2nc3ccccc3nc12 | inconclusive: 23.1 µM [activator, single point]
CCc1ccc(NC(=O)c2ccc3c(c2)C(=O)N(CCOC)C3Nc2ccc(CC)cc2)cc1 (stereo not given) | inconclusive: 23.1 µM [activator, single point]
FC(F)(F)c1cccc(NC(=S)NNC(=S)NCc2ccccc2)c1 | inconclusive: 29.1 µM [activator, single point]
Cn1c(=O)n(C)c2cc(/C=N/NC(=O)c3cc4cc(Br)ccc4o3)ccc21 | inconclusive: 29.1 µM [activator, single point]
C=CCNC(=S)Nc1sc2c(c1C(N)=O)CCCC2 | inconclusive: 14.6 µM [activator, single point]
CC(NCc1ccc(F)cc1)C(=O)Nc1cc(S(=O)(=O)N2CCCCC2)ccc1Cl (stereo not given) | inconclusive: 29.1 µM [activator, single point]
CCOc1cc(Br)c(Br)c(C=Nc2ccc(NC(C)=O)cc2)c1O | inconclusive: 2.91 µM [activator, full curve, poor fit]
Cc1ccc2nc(-c3cccc(NS(C)(=O)=O)c3)cc(-c3ccccc3)c2c1 | inconclusive: 20.6 µM [activator, single point]
CCOc1ccc(NC(=O)c2cnsn2)cc1 | inconclusive: 16.4 µM [activator, partial curve]
O=C(/C=C/c1ccc2c(c1)OCO2)Nc1nncs1 | inconclusive: 5.17 µM [activator, full curve]
COc1cc2cnc(-c3ccccc3)c(-c3ccc([N+](=O)[O-])cc3)c2cc1OC | inactive
COCc1ccc([C@@H]2C[C@H]3CN(Cc4ccccc4C)C(=O)[C@]34CCCN24)o1 | inactive
CCNC(=O)NC(=O)CSc1nc2ccccc2n1CC(C)C | inactive
COc1cc2c(cc1OC)C(c1ccc(Cl)cc1)=NCC2 | inactive
O=C(NCc1ccco1)c1ccc(Cn2cc([N+](=O)[O-])cn2)o1 | inactive
N#C/C(=C\c1cccnc1)C(=O)Nc1cccc2ccccc12 | inconclusive: 16.4 µM [activator, single point]
C=C1CCN([C@@H](C)C(=O)NCc2ccc(OC)cc2)S(=O)(=O)c2ccccc21 | inconclusive: 0.651 µM [activator, full curve, poor fit]
O=S(=O)(c1ccc(Cl)cc1)n1ccc2cccnc21 | inconclusive: 20.6 µM [activator, partial curve, poor fit]

SMILES | Potency
CCc1nnc(NC(=O)CSc2nccn2-c2cc(C)cc(C)c2)s1 | inconclusive: 29.1 µM [activator, partial curve, poor fit]
CN(C)S(=O)(=O)c1cccc(NC(=S)Nc2ccc(Cl)cc2Cl)c1 | inactive
O=[N+]([O-])c1ccc(O)c(/C=N/Nc2nn[nH]n2)c1 | inconclusive: 29.1 µM [activator, partial curve, poor fit]
Cc1cc(C)n(CCc2nc(-c3cc4ccccc4o3)cs2)n1 | inactive
COc1ccc(NS(=O)(=O)c2cccc3nonc23)c(OC)c1 | inactive
CCCOc1ccc(C(=O)Nc2ccc(C)cc2[N+](=O)[O-])cc1 | inconclusive: 5.8 µM [activator, single point]
COc1ccc([C@@H]2[C@@H]3C(=O)N(C(C)(C)C)C(=O)[C@@H]3[C@]3(C)C(=O)N(c4cccc(Cl)c4)C(=O)N23)cc1 | inconclusive: 0.058 µM [activator, full curve, poor fit]
Cn1c(=O)[nH]c(=O)c2c1nc(SCCO)n2CC(O)COc1ccccc1 (stereo not given) | inactive
CC(=O)c1ccc(N2CCN(C(=S)Nc3ccccc3C(F)(F)F)CC2)cc1 | inconclusive: 23.1 µM [activator, single point]
O=C(COC(=O)c1ccccc1)Nc1ccc2[nH]c(=O)[nH]c2c1 | inconclusive: 4.11 µM [activator, single point]
CC(C)COC(=O)C(C)Nc1n[nH]c(=S)[nH]c1=O (stereo not given) | inconclusive: 6.51 µM [activator, single point]
Cc1ccc(-c2nc(CN3CCCC(C(=O)N4CCOCC4)C3)c(C)o2)cc1 (stereo not given) | inactive
CC1(C)Cc2c(sc3c2c(=N)n(Cc2ccco2)c(=O)n3CC(=O)Nc2ccc(Cl)cc2)CO1 | inactive
Cn1c(C(=O)NN)cc2cc(OCc3ccccc3)ccc21 | inconclusive: 29.1 µM [activator, partial curve, poor fit]
O=[N+]([O-])c1ccc(Sc2nnnn2-c2ccccc2)nc1 | active: 3.66 µM
CC(=O)O[C@H]1C(=O)[C@@]2(C)C([C@H](OC(=O)c3ccccc3)[C@]3(O)C[C@H](OC(=O)[C@H](O)[C@@H](NC(=O)c4ccccc4)c4ccccc4)C(C)=C1C3(C)C)[C@]1(OC(C)=O)CO[C@@H]1C[C@H]2O (stereo not given in full) | inconclusive: 0.0651 µM [activator, full curve, poor fit]
Cc1sc2ncnc(N3CCC(C(=O)N(C)CC(=O)Nc4ccc(Cl)c(C(F)(F)F)c4)CC3)c2c1C | inconclusive: 3.66 µM [activator, full curve, poor fit]
CCOC(=O)C(=Cc1ccc(-n2ccnc2)cc1)C(=O)OCC | active: 2.59 µM
Cc1cc(S(=O)(=O)NC[C@H]2O[C@@H](n3cnc4c(N)ncnc43)[C@H](O)[C@@H]2O)c(C)s1 | inconclusive: 2.06 µM [activator, partial curve, poor fit]
COc1ccccc1OCc1ccc(C(=O)NCc2cccnc2)o1 | inactive
COc1ccc(C(=O)c2ccccc2CN2C(=O)c3ccccc3C2=O)cc1 | inactive
CCN(C(=S)NC(=O)c1ccco1)c1cccc2ccccc12 | inconclusive: 14.6 µM [activator, partial curve, poor fit]
